The assay in a line: Questionnaires on energy and exercise ability one year after dosing. Conditions: 0.5 mg daily dosing cohort.

This is an account of results in US20170274014A1, “COMBINATIONS OF LOW, IMMUNE ENHANCING, DOSES OF MTOR INHIBITORS AND CARS” (Novartis AG, priority 2014, published 2017).

The structures appear in SMILES notation.

As for `CO[C@H]1C[C@@H]2CC[C@@H](C)[C@@](O)(O2)C(=O)C(=O)N2CCCC[C@H]2C(=O)O[C@H]([C@H](C)C[C@@H]2CC[C@@H](OCCO)[C@H](OC)C2)CC(=O)[C@H](C)/C=C(\C)[C@@H](O)[C@@H](OC)C(=O)[C@H](C)C[C@H](C)/C=C/C=C/C=C/1C` [RAD001, (1R,9S,12S,15R,16E,18R,19R,21R,23S,24E,26E,28E,30S,32S,35R)-1,18-dihydroxy-12-{(1R)-2-[(1S,3R,4R)-4-(2-hydroxyethoxy)-3-methoxycyclohexyl]-1-methylethyl}-19,30-dimethoxy-15,17,21,23,29,35-hexamethyl-11,36-dioxa-4-aza-tricyclo[30.3.1.04,9]hexatriaconta-16,24,26,28-tetraene-2,3,10,14,20-pentaone], the “Self-reported energy and exercise ability as compared to placebo” value is “increased energy and exercise ability”.
